From PubChem BioAssay AID504832 (National Center for Advancing Translational Sciences (NCATS), 2011)
The whole screen tested about 310,000 compounds, of which about 18,000 (5.8%) were called active. Inconclusive results, whose numbers are uncertain, are shown with a selection of clear calls. Calls follow the shape of the dose curve; as a rule, active = well fitted inhibition curve with a large enough effect; inconclusive = small, poorly fitted or top-dose-only effect, or another doubt; inactive = no such curve, though single readings can be large or run the other way. Potencies of inconclusive entries are left out as doubtful fits.

Experiment: Primary qHTS for delayed death inhibitors of the malarial parasite plastid, 48 hour incubation
Conditions: P. falciparum luciferase growth in erythrocytes; series mostly up to 28.7 µM; activity change, negative = inhibition: at the top concentration
Summary of the method: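 First compound was added to culture medium, then infected red cells at 0.1% parasitemia and 2% hematocrit (final). After incubation at 37 C under 5% CO2, luciferase detection reagent was dispensed and light output recorded.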
% is scaled to controls: 0 for no effect and ±100 for the full control effect; potency is read from the fitted curve at half-maximal effect; tags tell the direction and shape of the fitted curve.

SMILES | activity change, negative = inhibition | Potency
CCc1nnc(NC(=O)C2Cc3ccccc3CN2S(=O)(=O)CC)s1 (centres undefined) | inactive: 7.62% | 
CSc1ccccc1NC(=O)c1cc(S(=O)(=O)N(C)C)ccc1N1CCCC1 |  | inconclusive [inhibitor, partial curve]
COc1cccc(NS(=O)(=O)c2ccc3c(c2)CCN3C(C)=O)c1 |  | inconclusive [inhibitor, partial curve, poor fit]
COc1ccc(C)cc1NC(=O)CN1CCN(S(=O)(=O)c2ccc(Cl)cc2)CC1 |  | active: 11.7 µM
COCCN1C(=O)C(=O)/C(=C(/O)c2ccc(S(=O)(=O)N3CCOCC3)cc2)C1c1ccc(C(C)C)cc1 (centres undefined) | inactive: 14.4% | 
COc1ccc2c(CC(=O)Nc3cccc(S(=O)(=O)N4CCOCC4)c3)coc2c1 |  | inconclusive [inhibitor, single point]
Cc1ccc(N(CC(=O)NC2CCCC2)C(=O)CCC(=O)Nc2nc(C)cs2)cc1 |  | inconclusive [inhibitor, partial curve, poor fit]
O=C(CCl)N(Cc1cccc([N+](=O)[O-])c1)c1cccc(Cl)c1 |  | inconclusive [inhibitor, partial curve]
CCCCc1nc(NCCNC(=O)c2ccco2)c(C#N)c2c1CSC(C)(C)C2 |  | active: 8.28 µM
CCc1ccc(/C=N/NC(=O)c2cc(-c3ccncc3)nc3ccccc23)s1 |  | inconclusive [inhibitor, single point]
CN(C)CCn1c2c(c(SCC(=O)Nc3nccs3)nc1=O)CCCC2 |  | inconclusive [inhibitor, single point]
CCCN1CCC(=O)N([C@H](CSc2ccc(C)cc2)Cc2ccccc2)CC1 |  | active: 9.28 µM
CCN(CC)S(=O)(=O)c1ccc(OC)c(NC(=O)CCc2c(C)noc2C)c1 |  | inconclusive [inhibitor, single point]
CCc1ncc(CN2CCCCC2C(=O)Nc2ccc(Oc3ccccc3)nc2)cn1 (centres undefined) |  | inconclusive [inhibitor, single point]
CCCCNC(=O)CC1N=C2c3ccccc3N=C(SCC(=O)Nc3cccc(C)c3)N2C1=O (centres undefined) |  | active: 1.85 µM
Cc1ccc(Oc2ncccc2NC(=O)CC(CC(=O)O)c2ccccc2)c2c1CCC2 (centres undefined) |  | inconclusive [inhibitor, single point]
COc1ccc(NC(=O)NC(=O)c2ccccc2)cc1 | inactive: 283% | 
COc1cccc(CC(=O)Nc2cc(S(=O)(=O)N3CCOCC3)ccc2N2CCOCC2)c1 |  | inconclusive [inhibitor, partial curve, poor fit]
Cc1noc(C)c1COc1ccc(C(=O)N2CCN(c3ccccc3O)CC2)cc1 |  | inconclusive [inhibitor, single point]
O=C1[C@H]2[C@@H](c3ccc(F)cc3)N3C(=O)N(c4cccc(Br)c4)C(=O)[C@@]3(Cc3ccc(Cl)cc3)[C@H]2C(=O)N1C1CCCCC1 |  | active: 2.94 µM
O=C(Oc1ccc(/C=N/Nc2nc(N3CCCCC3)nc(N3CCCCC3)n2)cc1)c1ccco1 |  | inconclusive [inhibitor, partial curve, poor fit]
N#Cc1c(N)nc(SCc2ccccc2)c(C#N)c1-c1ccco1 |  | inconclusive [inhibitor, full curve, poor fit]

SMILES | activity change, negative = inhibition | Potency
O=C(CSc1nc2ccccc2[nH]1)Nc1ccccc1N1CCOCC1 | inactive: -29.3% | 
CN1CCN(C2=Nc3cc(Cl)ccc3Nc3ccccc32)CC1 |  | active: 16.9 µM
Cn1c(N)c(C(=O)COC(=O)c2cc(-c3ccco3)nc3ccccc23)c(=O)n(Cc2ccccc2)c1=O |  | inconclusive [inhibitor, partial curve]
Cc1ccnc(NC(=O)c2cccc(NC(=O)CC3SC(N4CCCCC4)=NC3=O)c2)c1 (centres undefined) |  | inconclusive [inhibitor, partial curve, poor fit]
Cc1cc(C)n(CC(=O)NCc2ccccc2)c(=O)c1C#N | inactive: -15.9% | 
Cc1cc(NC(=O)c2noc3c2CCCC3)n(-c2ccccc2)n1 | inactive: 13.1% | 
CCC(=O)N/C(N)=N/c1nc(C)c2cc(OC)ccc2n1 |  | active: 3.29 µM
Cc1cc(OC(C)C(=O)Nc2ccncc2)ccc1Cl (centres undefined) |  | inconclusive [inhibitor, partial curve, poor fit]
Cc1cc(NC(=O)C2CCCN2C(=O)Nc2c(C)cccc2C)ccc1-n1cnnn1 (centres undefined) |  | inconclusive [inhibitor, single point]
COc1ccc(C(CNC(=O)c2cc(SC)ccc2Cl)N(C)C)cc1 (centres undefined) | inactive: -31.1% | 
C=CCn1cnc2scc(-c3ccc(OC)cc3)c2c1=O | inactive: 32.8% | 
COC(=O)CN(c1nc(C)c(Cl)c(OC)n1)S(=O)(=O)c1ccc(C)cc1 |  | inconclusive [inhibitor, full curve, poor fit]
COc1ccc(-c2nc(N3CCCCCC3)sc2C(=O)c2ccccc2)cc1 |  | inconclusive [inhibitor, single point]
COc1ccc2c(c1)CCC/C2=N/OC(=O)c1ccccc1OC | inactive: 0.491% | 
CCc1ccc(C2CC(c3cccc(OC)c3)n3nc(N)nc3N2)cc1 (centres undefined) | inactive: 14.5% | 
CCCc1nc(-c2ccccc2O)n(-c2ccccc2)n1 |  | inconclusive [inhibitor, single point]
CCCCOc1ccc(C(=O)Nc2ccncc2)cc1 |  | inconclusive [inhibitor, single point]
O=S(=O)(NC1CC1)c1ccccc1 | inactive: 5.21% | 
CCOC(=O)c1cn(CC)c2cc(Cl)c([N+](=O)[O-])cc2c1=O |  | active: 13.1 µM
CC(C)(CNC(=O)c1ccc(-c2cccc(C(F)(F)F)c2)o1)N1CCOCC1 |  | inconclusive [inhibitor, single point]
CC(C)n1nc(C(=O)Nc2cccc(S(=O)(=O)NCc3ccco3)c2)c2ccccc2c1=O |  | inconclusive [inhibitor, partial curve, poor fit]
Cc1ccc(OCCCn2c(=O)sc3ccccc32)cc1 |  | inconclusive [inhibitor, single point]
